In the RNAGym collection of RNA variant scans (doi:10.7554/elife.90254):
The source gives no read counts; variants with many changes may rest on few reads.

B1: LINE1-mini (parent)
chain: GGCAGAGCUCAACACAGCGUGGCAAAGUGGCUGUGGCUAGACUGCC

Variants of: B1
Assay: self-cleavage, relative activity (ratio to wild type); higher = more cleavage; in vitro, sequencing; the parent is a self-cleaving ribozyme

| Variant | self-cleavage |
| --- | --- |
| GGCAGAGCUCAACACAACGUGGCAAAGUGGCUGUGGCUAGAUUGUC [G17A C42U C45U] | 0.04 |
| GGCAGAGCUCAACACAGCGUGGCAAAGUGGCUGUGGCUACAUGGCC [G40C C42U U43G] | 0.02 |
| GGCAGAACUAAAAACAGCGUGGCAAAGUGGCUGUGGCUAGACUGCC [G7A C10A C13A] | 0.06 |
| GGCAGACCGCAACACAGCGUGGCAAAGAGGCUGUCGCUAGACUGCC [G7C U9G U28A G35C] | 0.08 |
| GGCAGAGCUGAUCUCAGAGUGGCAAAGGGGCUGUGGCUAUACUGCC [C10G A12U A14U C18A U28G G40U] | 0 |
| GUCAGAAGUCAACACAGCGUGGUAAAGUGGCUGUGGCUGGACUGCC [G2U G7A C8G C23U A39G] | 0.05 |
| GGCCGAACUCAACACAGAGUGGCAAAGUGGCUGUCGCUUGACUGCC [A4C G7A C18A G35C A39U] | 0.02 |
| GAUAGAGCGCAACCCAGCGUGGCAAAGUGGCUGUGGCUAGACUGCC [G2A C3U U9G A14C] | 0.11 |
| GGCAGAGCUCAACACAGCGUAGCAAAGUGGCUGAGGCGAGACUGCC [G21A U34A U38G] | 0.05 |
| GGCAGAGCUCAACACAGCGUGGCCAAGUGGCUAUAGCUAGACUGCC [A24C G33A G35A] | 0.03 |
| GGCCGACCUCAACACAGCGUGGCAAAGUGGCUUUGGCUAGACUGCC [A4C G7C G33U] | 0.14 |
| GGCACAGCUCAACACAGCGUGGCAAAGAGGCUGUGGCUAGAGUUCC [G5C U28A C42G G44U] | 0.02 |
| GGCAGUGCUCAAGACAGCGUGGAAAAGUGGCUGGGGCUAGACUGCC [A6U C13G C23A U34G] | 0.01 |
| UUCAGAGCUCAACACAGCGUGGCAAAGGGGCUGUGGCUAGACUGCC [G1U G2U U28G] | 0.03 |
| GGCAGCGCUCAACACAGCGUGCCAAAGUGACUGUGGCUAGACUGCC [A6C G22C G30A] | 0.11 |
| GGCAGAGCUCAACACAGCGUGGCAAAGUGGCAGUGGCUAAACUGAC [U32A G40A C45A] | 0.06 |
| GGCAGAGCUCAACUCAGCGUGGCAAAGUGGCUUUGGAUAGACUGCC [A14U G33U C37A] | 0.01 |
| GGCAGAGCUUACCACAGCGUGGCAAAGUGGCUGUGGGAAGACUGCC [C10U A12C C37G U38A] | 0.01 |
| GGCAGAGCUCAACAAAGCGUGGAAAAGUGUCUGUGGUUAGACUGCA [C15A C23A G30U C37U C46A] | 0.56 |

| Variant | self-cleavage |
| --- | --- |
| GGCAGAGCUCAACAUAGCGUGGAAAAGUGUCUGUGGCUAGACUGCC [C15U C23A G30U] | 0.55 |
| GGGAGAGCUCAACAAAGCGUGGCAAAUUGGCUGUGGCUAGAAUGCC [C3G C15A G27U C42A] | 0.07 |
| GGCACAGCUCAAAACAGCGUGGCGAAGUCGCUGUGGCUAGACUGCC [G5C C13A A24G G29C] | 0.11 |
| GGCAGAGCUCCACACAGCGUGGCAAAGUGCCUGUGGCUAGACUGUC [A11C G30C C45U] | 0.02 |
| GGCAGAGCUAAACACAGCGUCGCAAAGCGGCUGUGGCUAGACUGCC [C10A G21C U28C] | 0.03 |
| GCCAGAACUCAACACAGCGUGGCAAAGUGGCUGUAGCUAGACUGCC [G2C G7A G35A] | 0.24 |
| GGCAGUGCUCAACACAGCGAGGAACAGUGGUUGUGGCUAGACUGCC [A6U U20A C23A A25C C31U] | 0.38 |
| GGCAGAGAUGAACACGCCGUGGCAAAGUUGCUGUGGCUAGACUGCC [C8A C10G A16G G17C G29U] | 0.02 |
| GGCAGAGCUCAACACAGCUUGGCAAGUUGGCUGUGGCUAGACUGCC [G19U A26G G27U] | 2.26 |
| GGCAGAGCUCAACGCAACGUGGCAAAGUGGCUGUGGCUAGACUGCA [A14G G17A C46A] | 0.04 |
| GGCAGGGCUCAACACAGCGUGGCAUAUUGUCUGUGGCUAGACUGCC [A6G A25U G27U G30U] | 0.07 |
| GGCACAGCUCAAUAAAGCGUGGCAAGGUGGCUGUGGCUAGACUGCC [G5C C13U C15A A26G] | 0.02 |
| GGCAGAGCUCAACACAGGGUGGCAAAGUGGCUGUGGAUCGACUGCC [C18G C37A A39C] | 0.25 |
| GGCAGAACUCAACACAGCGUGGCAAAGUGGCUGUGCAUAGACUGCC [G7A G36C C37A] | 0.02 |
| GGCAGAGCCCAACAGAGCGUGCCAAAGUGCCUGUGGCUAGACUGCC [U9C C15G G22C G30C] | 0.03 |
| GGCAGAGCUCAACCCAGUGUGGCCAAGUGGCUGUGCCUAGACUGCC [A14C C18U A24C G36C] | 0 |
| GGAAGGGCCCAACACAGCGUGGCAAAGUGGCUGUGGCUAGACUGCC [C3A A6G U9C] | 0.03 |
| GUCAGAGCUCAACACAGCGUGGCAAAGUGGCUGCGGCUAGAGUGCC [G2U U34C C42G] | 0.01 |
| GGCAGAGCUCAACAGCGCGUGGCAAAGAGGCUGCGGUUAGACUGCC [C15G A16C U28A U34C C37U] | 0 |

| Variant | self-cleavage |
| --- | --- |
| GGCCGAGCUCAACACAGCGCGGCAAAGUGGCUCUGGCUAGACUGCC [A4C U20C G33C] | 0.16 |
| GUCAGAACUCAAAACAGCGUGGCAAAGUGGCUGUGGCUAGACUACC [G2U G7A C13A G44A] | 0.24 |
| UGCAGAGCUCAACACAGCGUGGCAAAGUGGCUGUCGCUAGACUGCU [G1U G35C C46U] | 0.05 |
| GGCAGAGCUAAACACAGCGUGGAAAAGUGGCUGUGGCUAGACUGCA [C10A C23A C46A] | 0.02 |
| GGCAGAGCUCACCACAGCGUGGCAAAGAGACUGUGGCUAGCCUGCC [A12C U28A G30A A41C] | 0 |
| GGCAGAGCUCUACACAGCGUGGCACAGUGGCUGUGGCCACACUGCC [A11U A25C U38C G40C] | 0 |
| GGCAGAGCGGCACAUAGCGUAGCAAAGUGGCUGUGGCUAGACUGCC [U9G C10G A11C C15U G21A] | 0.01 |
| GGCAGAGCUGCACACAGCCUGGCAAAGUGGCUGUGGAUAGACUGCC [C10G A11C G19C C37A] | 0.01 |
| GGCAGAGCUCAACACUGCGUGGCAAAAUAGCUGUGGCUAGACUGAC [A16U G27A G29A C45A] | 0.08 |
| GGCAGAGCUCGACACAGCAUGACAAAGUGGCUGUGGCUAGACUGCC [A11G G19A G22A] | 0.03 |
| GGCAGAGCUCAGCACAGAGUGACAAACUGGCUGUGGCUAGAUUGCC [A12G C18A G22A G27C C42U] | 0.01 |
| GCAAGAGAUCAACACAGCGUGGCAAAGUGCCUGUGGCUAGACUGCC [G2C C3A C8A G30C] | 0.04 |
| GGCGGAGCUCAACACAGCGUGUCAAAGUGGCCGUGGCUAGACUGCC [A4G G22U U32C] | 0.2 |
| GGCAGAGCUCAACACAUCGUCGCAAACUGGUUGUGGCUAGACUGCC [G17U G21C G27C C31U] | 0.43 |
| GGCAGACCUCAACACAGCGUGGCAAAGUGGCUGUGGCUCGACUGUC [G7C A39C C45U] | 0.04 |
| GGCAGAGAUCAACACAGUGUGGCAAAGUGGCUGUGGCUAUACUGCC [C8A C18U G40U] | 0.19 |
| GGCAGAGCUCAAAACAGCGUGGCAAAUUGGCUGUCGCUAGACUGCC [C13A G27U G35C] | 0.05 |
| GGCAGAGCUGAACACAGCGUGACAAAGUGGCUCUUGAUAGACUGCC [C10G G22A G33C G35U C37A] | 0.02 |
